Measured values: the supplement of paper PMC4967469
IC50 is the fitted dose that halves viability relative to control wells, and lower means more sensitive; where the fit passes the top or lowest dose, that dose stands as a limit. The AUC spans the tested range (256-fold, ending at the top dose) of the same fit; it is 1 without any effect and falls as sensitivity rises. An inferred top dose was calculated from the reported fits.

Compound: O=C1NC(=NCc2cccs2)S/C1=C\c1ccc2ncccc2c1 [RO-3306]
Test: Viability of human cancer cell lines after 72 h of drug (GDSC screen)
Settings: top dose 5 µM; top dose inferred
Procedure: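 Human cancer cell lines in 384-well plates, medium with 10% serum, drug for 72 h over a 256-fold dose range (nine 2-fold or five 4-fold steps up to the top dose). Adherent lines were fixed and stained with the nucleic acid dye Syto60, suspension lines read with resazurin; signal relative to control wells, capped at 0 and 100%. One two-parameter sigmoid per drug and line, fitted in a mixed model over all curves with the slope shared within a line.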

## CADO-ES1 (Ewing sarcoma, suspension)
  AUC: 0.981
  IC50: > 5 µM

## CAL-12T (non-small cell lung carcinoma, adherent)
  AUC: 0.955
  IC50: > 5 µM

## CAL-27 (head and neck, adherent)
  AUC: 0.831
  IC50: 3.25 µM

## CAL-29 (bladder, adherent)
  AUC: 0.947
  IC50: > 5 µM

## CAL-33 (head and neck, adherent)
  AUC: 0.815
  IC50: 2.76 µM

## CAL-39 (cervix, adherent)
  AUC: 0.911
  IC50: > 5 µM

## CAL-51 (breast, adherent)
  AUC: 0.989
  IC50: > 5 µM

## CAL-54 (kidney, adherent)
  AUC: 0.985
  IC50: > 5 µM

## CAL-62 (thyroid, adherent)
  AUC: 0.986
  IC50: > 5 µM

## CAL-72 (osteosarcoma, adherent)
  AUC: 0.959
  IC50: > 5 µM

## CAL-78 (chondrosarcoma, adherent)
  AUC: 0.968
  IC50: > 5 µM

## CAL-85-1 (breast, adherent)
  AUC: 0.977
  IC50: > 5 µM

## CAL-120 (breast, adherent)
  AUC: 0.955
  IC50: > 5 µM

## CAPAN-1 (pancreas, adherent)
  AUC: 0.947
  IC50: > 5 µM

## CAS-1 (glioma, adherent)
  AUC: 0.976
  IC50: > 5 µM

## CCF-STTG1 (glioma, adherent)
  AUC: 0.978
  IC50: > 5 µM

## CCK-81 (large intestine, adherent)
  AUC: 0.863
  IC50: 3.93 µM

## CCRF-CEM (lymphoblastic leukaemia, suspension)
  AUC: 0.935
  IC50: > 5 µM

## CESS (acute myeloid leukaemia, suspension)
  AUC: 0.99
  IC50: > 5 µM

## CFPAC-1 (pancreas, adherent)
  AUC: 0.965
  IC50: > 5 µM

## CGTH-W-1 (thyroid, adherent)
  AUC: 0.914
  IC50: > 5 µM

## CHL-1 (melanoma, adherent)
  AUC: 0.945
  IC50: > 5 µM

## CHP-126 (neuroblastoma, suspension)
  AUC: 0.88
  IC50: > 5 µM

## CHP-134 (neuroblastoma, suspension)
  AUC: 0.961
  IC50: > 5 µM

## CHP-212 (neuroblastoma, adherent)
  AUC: 0.876
  IC50: 4.3 µM

## CHSA0011 (chondrosarcoma, adherent)
  AUC: 0.864
  IC50: > 5 µM

## CHSA0108 (chondrosarcoma, adherent)
  AUC: 0.963
  IC50: > 5 µM

## CHSA8926 (chondrosarcoma, adherent)
  AUC: 0.978
  IC50: > 5 µM

## CL-11 (large intestine, adherent)
  AUC: 0.954
  IC50: > 5 µM

## CL-34 (large intestine, adherent)
  AUC: 0.986
  IC50: > 5 µM

## CL-40 (large intestine, adherent)
  AUC: 0.971
  IC50: > 5 µM

## CMK (acute myeloid leukaemia, suspension)
  AUC: 0.989
  IC50: > 5 µM

## CML-T1 (chronic myeloid leukaemia, suspension)
  AUC: 0.984
  IC50: > 5 µM

## COLO-205 (large intestine, suspension)
  AUC: 0.97
  IC50: > 5 µM

## COLO-320-HSR (large intestine, suspension)
  AUC: 0.99
  IC50: > 5 µM

## COLO-668 (small cell lung carcinoma, adherent)
  AUC: 0.982
  IC50: > 5 µM

## COLO-678 (large intestine, semi-adherent)
  AUC: 0.984
  IC50: > 5 µM

## COLO-679 (melanoma, adherent)
  AUC: 0.981
  IC50: > 5 µM

## COLO-680N (oesophagus, adherent)
  AUC: 0.944
  IC50: > 5 µM

## COLO-684 (endometrium, suspension)
  AUC: 0.983
  IC50: > 5 µM

## COLO-783 (melanoma, adherent)
  AUC: 0.953
  IC50: > 5 µM

## COLO-800 (melanoma, adherent)
  AUC: 0.984
  IC50: > 5 µM

## COLO-824 (breast, adherent)
  AUC: 0.979
  IC50: > 5 µM

## COR-L23 (large cell lung carcinoma, adherent)
  AUC: 0.885
  IC50: > 5 µM

## COR-L88 (small cell lung carcinoma, adherent)
  AUC: 0.986
  IC50: > 5 µM

## COR-L95 (small cell lung carcinoma, adherent)
  AUC: 0.978
  IC50: > 5 µM

## COR-L279 (small cell lung carcinoma, suspension)
  AUC: 0.99
  IC50: > 5 µM

## COR-L321 (lung, suspension)
  AUC: 0.985
  IC50: > 5 µM

## CP50-MEL-B (melanoma, adherent)
  AUC: 0.948
  IC50: > 5 µM

## CP66-MEL (melanoma, adherent)
  AUC: 0.961
  IC50: > 5 µM

## CPC-N (small cell lung carcinoma, suspension)
  AUC: 0.985
  IC50: > 5 µM

## CRO-AP2 (B-cell lymphoma, suspension)
  AUC: 0.919
  IC50: > 5 µM

## CS1 (bone, adherent)
  AUC: 0.845
  IC50: 4.24 µM

## CTB-1 (B-cell lymphoma, suspension)
  AUC: 0.915
  IC50: > 5 µM

## CTV-1 (acute myeloid leukaemia, suspension)
  AUC: 0.988
  IC50: > 5 µM

## CW-2 (large intestine, adherent)
  AUC: 0.972
  IC50: > 5 µM

## Ca9-22 (head and neck, adherent)
  AUC: 0.96
  IC50: > 5 µM

## Ca-Ski (cervix, adherent)
  AUC: 0.875
  IC50: > 5 µM

## CaR-1 (large intestine, adherent)
  AUC: 0.964
  IC50: > 5 µM

## Calu-3 (lung adenocarcinoma, adherent)
  AUC: 0.946
  IC50: > 5 µM

## Calu-6 (lung adenocarcinoma, adherent)
  AUC: 0.978
  IC50: > 5 µM

## Caov-4 (ovary, adherent)
  AUC: 0.934
  IC50: > 5 µM

## Capan-2 (pancreas, adherent)
  AUC: 0.976
  IC50: > 5 µM

## ChaGo-K-1 (non-small cell lung carcinoma, adherent)
  AUC: 0.939
  IC50: > 5 µM

## D-247MG (glioma, adherent)
  AUC: 0.98
  IC50: > 5 µM

## D-263MG (glioma, adherent)
  AUC: 0.965
  IC50: > 5 µM

## D-283MED (medulloblastoma, adherent)
  AUC: 0.949
  IC50: > 5 µM

## D-336MG (glioma, adherent)
  AUC: 0.981
  IC50: > 5 µM

## D-392MG (glioma, adherent)
  AUC: 0.962
  IC50: > 5 µM

## D-423MG (glioma, adherent)
  AUC: 0.931
  IC50: > 5 µM

## D-502MG (glioma, adherent)
  AUC: 0.912
  IC50: > 5 µM

## D-542MG (glioma, adherent)
  AUC: 0.938
  IC50: > 5 µM

## D-566MG (glioma, adherent)
  AUC: 0.921
  IC50: > 5 µM

## DAN-G (pancreas, adherent)
  AUC: 0.992
  IC50: > 5 µM

## DB (B-cell lymphoma, suspension)
  AUC: 0.863
  IC50: > 5 µM
